The whole screen tested about 48,000 compounds, of which about 550 (1.1%) were called active. Another 4% or so got no clear call; they are omitted. Rule as the data show it: active = potency below about 15 µM; inconclusive = mostly about 16 µM to 33 µM; inactive = weaker than that. The list shows a part of the results.
Biological target: Lysosomal acid glucosylceramidase (Homo sapiens) (UniProt P04062)
Assay: Glucocerebrosidase;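 also: the screen sought inhibitors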
Details: purified enzyme, resorufin glucoside fluorescence (screen aimed at inhibitors), 20 min; series mostly up to 77 µM
From the text: NCGC Assay Overview: Beta-glucocerebrosidase catalyzes the hydrolysis of beta-glucocerebroside to glucose and ceramide. The inherited deficiency of beta-glucocerebrosidase results in Gaucher disease, which is characterized by a wide variety of symptoms including hepatosplenomegaly, anemia, thrombocytopenia, bony lesions and bone marrow infiltration with characteristic storage cells, known as Gaucher cells. There are also forms of the disorder affecting the central nervous system. Patients with the same genotypes can manifest with diverse clinical presentations and it is believed that improper folding and trafficking of beta-glucocerbrosidase may contribute to the phenotypes observed. Low molecular weight molecules, acting as chaperones, may potentially restore trafficking of misfolded beta-glucocerebrosidase from the endoplasmic reticulum to the lysosomes, thereby enhancing functional lysosomal beta-glucocerebrosidase activity. Using normal beta-glucocerebrosidase, an assay was developed to screen for small molecule inhibitors that could potentially act as molecular chaperones on the mutant forms [developed with NIH investigator Dr. Ellen Sidransky's laboratory]. Two pro-fluorescent substrates were chosen for two screens against a small molecule library. One beta-glucocerebrosidase assay used Resorufin beta-D-Glucopyranoside (Marker Gene Technology Inc.), generating a red fluorescent product. The second assay used Fluorescein di-beta-D-Glucopyranoside, generating a blue fluorescent product. […] The IC50 values of Conduritol B Epoxide, a known glucocerebrosidase inhibitor, were determined to be 87.5 uM and 117 uM, respectively. The use of two difference pro-fluorescent substrates in the screens helped to eliminate false positives. All compounds were screened in a titration series resulting in AC50s (e.g., IC50s or EC50s).
NCGC Assay Protocol Summary: Both enzyme and substrate were diluted in buffer composed of 50mM citric acid/KH2PO4, 10mM sodium taurocholate and 0.01% tween-20 at pH 5.9. The final concentration of the enzyme was 0.2 nM in both assays. The compound library was titrated in 7 to 15 concentrations for the primary screens with a final concentration ranging from 0.6 nM to 50 uM. This particular assay protocol is for the "red" substrate, and it was performed in 1536-well plate format as follows: Red fluorescence substrate assay: 2 uL enzyme 23 nL compound 1 uL substrate (final concentration of 30 uM) Incubate at room temperature (RT) for 20 minutes Read the plate in Viewlux plate reader (Ex=548(7) and Em=600(10)).
Potency is read from the fitted curve at half-maximal effect.

Sequence of UniProt P04062 (P04062 whole entry, looked up): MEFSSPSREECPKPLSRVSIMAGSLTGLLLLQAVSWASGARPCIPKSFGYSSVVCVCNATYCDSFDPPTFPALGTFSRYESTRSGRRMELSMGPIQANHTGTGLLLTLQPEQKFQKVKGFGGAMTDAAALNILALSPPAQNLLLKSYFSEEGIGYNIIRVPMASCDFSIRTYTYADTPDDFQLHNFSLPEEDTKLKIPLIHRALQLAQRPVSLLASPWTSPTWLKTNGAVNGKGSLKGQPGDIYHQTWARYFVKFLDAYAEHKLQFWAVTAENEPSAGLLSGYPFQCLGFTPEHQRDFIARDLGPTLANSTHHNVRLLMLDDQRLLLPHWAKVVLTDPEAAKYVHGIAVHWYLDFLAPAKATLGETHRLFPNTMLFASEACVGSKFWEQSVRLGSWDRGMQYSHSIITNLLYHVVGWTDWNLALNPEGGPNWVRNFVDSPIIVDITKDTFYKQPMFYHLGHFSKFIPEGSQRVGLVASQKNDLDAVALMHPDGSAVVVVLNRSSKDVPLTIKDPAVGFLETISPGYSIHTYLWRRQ

Potency, inactive:
CCOC(=O)c1sc(NC(=O)CSc2nnc(-c3ccco3)n2CC)c(C(=O)OCC)c1C > 76.9 µM
Cc1nc(COC(=O)c2ccc(S(=O)(=O)N3CCCC3)cc2)cs1 > 76.9 µM
O=S(=O)(NCC1CC1)c1cccc(S(=O)(=O)N2CCCC2)c1 > 76.9 µM
CC(C)OC(=O)CSc1nnc(-c2cccnc2)n1N > 76.9 µM
COc1ccc(N2CCN(C3CC(=O)N(c4ccc5c(c4)OCCO5)C3=O)CC2)cc1 (stereo unspecified) > 76.9 µM
Cc1nn(-c2ccccc2)c2c1P(=O)(O)/C(=C1\N(C)c3ccccc3C1(C)C)C=N2 > 76.9 µM
Cc1nc2ccccc2c(=O)n1NS(C)(=O)=O > 76.9 µM
CC(=O)Nc1ccc(NC(=O)c2ccccc2N(C)S(C)(=O)=O)cc1 > 76.9 µM
c1csc(CNc2ncnc3sccc23)c1 > 76.9 µM
c1ccc(Nc2nc3ccccc3[nH]2)nc1 > 76.9 µM
CCOC(=O)C1=C(CNCc2ccccc2Cl)NC(=O)NC1c1ccc2c(c1)OCO2 (stereo unspecified)
N#Cc1c(-c2ccccc2)nc(N2CCOCC2)[nH]c1=O > 76.9 µM
Cn1c(=O)[nH]c(=O)c2c1nc(Br)n2CCCSc1nc2ccccc2o1 > 76.9 µM
CCNc1nc(OC)nc(SCC(N)=O)n1 > 76.9 µM
O=C(CC1CC2CCC1C2)NCc1cccs1 (stereo unspecified) > 76.9 µM
Cc1ccc(C(=O)NC2CCS(=O)(=O)C2)cc1S(=O)(=O)N1CCCCC1 (stereo unspecified) > 76.9 µM
c1ccc(OCCCn2nnc(-c3ccncc3)n2)cc1 > 76.9 µM
CCc1ccccc1NC(=O)CSc1nnc([C@@H](NC(=O)OC(C)(C)C)C(C)C)o1 > 76.9 µM
COC(=O)c1ccsc1NC(=O)CSc1nnnn1Cc1ccccc1 > 76.9 µM
CCOc1cc2c3c(c1)C1(OCCO1)C(=O)N3C(C)(C)CC2C (stereo unspecified) > 76.9 µM
CC(C)n1c(SCC(=O)N2CCCc3ccccc32)nc2c1c(=O)n(C)c(=O)n2C > 76.9 µM
CN(C(=O)c1ccccn1)c1nnc(-c2cnccn2)s1 > 76.9 µM
O=C(CCNS(=O)(=O)c1ccc2c(c1)CCC(=O)N2)Nc1ccc2c(c1)OCCO2 > 76.9 µM
COc1ccc(CN(C(=O)CSc2nnc(-c3ccc(F)cc3)o2)c2ccc(F)cc2)cc1 > 76.9 µM
CCC(C)NC(=O)C1c2ccccc2C(=O)N1Cc1ccccc1OC (stereo unspecified) > 76.9 µM
CCn1c(SCc2cccc(C(=O)O)c2)nnc1-c1ccccc1 > 76.9 µM
CCOc1nc(OCC)nc(-n2cc(-c3ccccc3)nn2)n1 > 76.9 µM
Cc1nn2c(-n3ccnc3)c3c(nc2c1-c1ccccc1)CCC3 > 76.9 µM
CCOC(=O)Cc1csc(NC(=O)c2ccco2)n1 > 76.9 µM
CCCC(C)C1C(C#N)=C(N)Oc2cc(C)oc(=O)c21 (stereo unspecified) > 76.9 µM
CCOC(=O)N1CCN(C(=O)CSCC(=O)Nc2nc(-c3ccc(OC)cc3)cs2)CC1 > 76.9 µM
COc1ccccc1N(CC(=O)Nc1ccc2c(c1)OCCO2)S(C)(=O)=O > 76.9 µM
O=c1cc(N2CCN(c3ccccc3)CC2)[nH]c(=O)n1-c1ccccc1Cl > 76.9 µM
C=CCN(C(=O)Cn1c(C(=O)OC)cc2oc(C)cc21)c1ccccc1
O=c1[nH]c(SCC2CCCCO2)nc2ccccc12 (stereo unspecified) > 76.9 µM
OC(CN1CCOCC1)Cn1c(-c2cccc(Cl)c2)nc2ccccc21 (stereo unspecified) > 76.9 µM
CC(=O)Nc1ccc(NC(=O)c2cccc(C(=O)OC(C)C)n2)cc1 > 76.9 µM
COC(=O)c1cnn2c3c(c(C)nc12)CCCC3 > 76.9 µM
CCc1cc(C(=O)OC)c(NC(=O)CCC(=O)O)s1 > 76.9 µM
Cc1nnc(SCC(=O)N2CCN(Cc3ccccc3)CC2)s1 > 76.9 µM
Cc1ccc(C(C)n2cc(C(=O)NCc3cccnc3)nn2)cc1 (stereo unspecified) > 76.9 µM
C=CCn1c(SCC(=O)Nc2nc3ccccc3s2)nnc1-c1ccccc1O > 76.9 µM
CC(OC(=O)C1CCCO1)C(=O)NC1CCCC1 (stereo unspecified) > 76.9 µM
Cc1cc(C)nc(SC(C)C(=O)Nc2ccc(S(N)(=O)=O)cc2)n1 (stereo unspecified) > 76.9 µM
COc1ccc(CNC(=O)C(C)NC(=O)c2cc3ccccc3o2)cc1 (stereo unspecified) > 76.9 µM
CCCc1cc(=O)n2[nH]c(NCc3ccccc3Cl)nc2n1 > 76.9 µM
COC(=O)CCNc1ccc2c(c1)OCCO2 > 76.9 µM
Cc1nn(CC(=O)NCc2cccnc2)c(=O)c2ccccc12 > 76.9 µM
O=C1Nc2ccccc2C(O)(C(=O)NCc2ccco2)N1c1ccc(Cl)cc1 (stereo unspecified) > 76.9 µM
CCCOc1ccc(CN(CCO)CCO)cc1C(=O)OC > 76.9 µM
O=C1C(C=NCCCN2CCCC2=O)=C(O)c2ccccc21 > 76.9 µM
O=C(CSc1nnc(-c2ccccc2)o1)c1ccc2c(c1)OCCO2 > 76.9 µM
COc1ccc(OC)c(NC(=O)CSc2nnc(CNC(=O)COc3ccc(Cl)cc3)o2)c1 > 76.9 µM
CC(=O)Nc1c(O)n(C)c2ccccc12 > 76.9 µM
COCCCNC(=O)c1ccc2c(c1)OCO2 > 76.9 µM
COc1cc2cc(CN(Cc3cccnc3)C(=O)NCc3ccccc3)c(=O)[nH]c2cc1OC > 76.9 µM
O=C(CCC(=O)N1CCCC1)Nc1nnc(C2CCCCC2)s1 > 76.9 µM
Cn1c(NC(=O)c2ccco2)c(-c2ccccc2)c(=O)c2ccccc21 > 76.9 µM
O=C(O)C1CC=CCC1C(=O)Nc1ccccc1Cl (stereo unspecified) > 76.9 µM
Cc1ccc2nc(-c3cccc(NC(=O)c4ccco4)c3)[nH]c2c1 > 76.9 µM
Clc1ccc(CSc2nnc(-c3cccnc3)n2Cc2ccco2)c(Cl)c1 > 76.9 µM
CCCCN(CC)C(=O)C1CCC(=O)N(c2ccc(OC)cc2)C1c1ccc(OC)c(OC)c1 (stereo unspecified) > 76.9 µM
COC(=O)c1sccc1NC(=O)C1C2C=CC(O2)C1C(=O)O (stereo unspecified) > 76.9 µM
COc1cc(NC(=O)c2c(F)cccc2F)nc(OC)n1 > 76.9 µM
CCCOc1ccc(N2C(=O)CC(N3CCC(c4nncn4CC)CC3)C2=O)cc1 (stereo unspecified) > 76.9 µM
NC(=O)CSC1=Nc2ccccc2C2=NC(CC(=O)NCc3cccs3)C(=O)N12 (stereo unspecified) > 76.9 µM
CCCCSc1nc2c(cnn2-c2ccc(Cl)cc2)c(=O)[nH]1 > 76.9 µM
O=C(CSc1nnc(-c2ccco2)n1CC1CCCO1)NC1CCCC1 (stereo unspecified) > 76.9 µM
Cc1c(C(=O)NCc2ccc3c(c2)OCO3)oc2ccc(S(=O)(=O)N3CCC(C)CC3)cc12 > 76.9 µM
Cc1ccc(CNC(=O)CCc2nc3ccccc3c(=O)[nH]2)cc1 > 76.9 µM
COc1cc(OC)cc(C(=O)NCc2nc(-c3ccccc3)no2)c1 > 76.9 µM
O=C(O)CCN1C(=O)NC2(CCCC2)C1=O > 76.9 µM
CC(C)C(c1nnnn1C1CCCC1)N1c2ccccc2CC1C (stereo unspecified) > 76.9 µM
O=C(CN1C(=O)c2ccccc2C1=O)Nc1ccc2c(c1)OCO2 > 76.9 µM
COC(=O)CCSc1nccn1Cc1ccccc1 > 76.9 µM
COC(=O)CSc1nc2cc(OC)ccc2cc1C#N > 76.9 µM
COc1ccc(N2C(=O)C3CC(C)=C(C)CC3C2=O)c(OC)c1 (stereo unspecified) > 76.9 µM
C[C@H](NC(=O)Nc1ccc2c(c1)OCCO2)C(=O)O > 76.9 µM
COc1ccc(C(=O)N(CN2CCCC2=O)c2cc(C)on2)cc1OC > 76.9 µM
N#CCCN1CCn2c1nc1ccccc12 > 76.9 µM
Cc1cccc(-n2ncc3c(Nc4c(C)n(C)n(-c5ccccc5)c4=O)ncnc32)c1 > 76.9 µM
Cc1ccc(S(=O)(=O)NCCCCC(NC(=O)OC(C)(C)C)C(=O)O)cc1 (stereo unspecified) (tested in a mixture with another compound) > 76.9 µM
COC(=O)c1ccccc1N1C(=O)[C@@H]2C(c3ccc(F)cc3)=NO[C@@H]2C1=O > 76.9 µM
CC(=O)N1CCC(N(C(=O)Nc2ccc(C)c(C)c2)C2CCCC2)CC1 > 76.9 µM
CCOc1ccccc1C(=O)N1CCC(n2nnc3cc(C)ccc32)CC1 > 76.9 µM
COc1cccc(NC(=O)C2CC(=O)N=C(N)S2)c1 (stereo unspecified) > 76.9 µM
CC1CCCCC12NC(=O)N(CC(=O)c1ccc[nH]1)C2=O (stereo unspecified) > 76.9 µM
C=CCn1c(SCC(=O)Nc2c(C)cccc2C)nnc1-c1cnccn1 > 76.9 µM
CCOc1ccc(CNC(=O)C2CCCN(S(C)(=O)=O)C2)cc1OC (stereo unspecified) > 76.9 µM
Cc1oc(C(C)(C)C)cc1C(=O)NCC(=O)NCC(=O)O > 76.9 µM
CCOc1ccc(N2CC(C(=O)Nc3cccc(C)c3C)CC2=O)cc1 (stereo unspecified) > 76.9 µM
